According to PubChem BioAssay AID1963576 (National Center for Advancing Translational Sciences (NCATS), 2024):
About 60 (0.1%) of roughly 46,000 compounds were called active. Roughly 3% stayed inconclusive and do not appear here. Calls follow the shape of the dose curve; as a rule, active = well fitted inhibition curve with a large enough effect; inconclusive = small, poorly fitted or top-dose-only effect; inactive = no such curve, though single readings can be large or run the other way. This is one part of the list.

Assay: Primary qHTS assay for Inhibitors of ovarian cancer metastasis using an organotypic tumor microenvironment (TME) model. Also: nearly all actives have a fitted effect of over 65% in size.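 As to activity change, negative = inhibition: plate controls were DMSO wells for no effect and tomatine positive control wells for full effect.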
Settings: SKOV3ip1-GFP adhesion/invasion on 3D omental model, fluorescence; series mostly up to 45.8 µM; activity change, negative = inhibition: at the top concentration
Procedure, shortened: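 qHTS, 4-pt dose (0.36-46 umol/L); SKOV3ip1-GFP, 1,200 cells/well, no FBS; primary omental fibroblast/mesothelial co-culture 48 h pre-grown; 2 h RT + 16 h 37 C; PBS wash, 4% PFA; GFP count 488/509 nm.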

Activity change, negative = inhibition, inactive:
Cc1cc(C)cc(NC(=O)Cn2c(=O)n(CCC(C)C)c(=O)c3cccnc32)c1 1.16%
CCN1CCN(c2cc(C)c3cc(NC(=O)c4cc(OC)c(OC)c(OC)c4)ccc3n2)CC1 -2.41%
CCOc1ccc(-c2nc(CSCC(=O)NCCc3ccccc3)c(C)o2)cc1 -4.26%
Clc1cccc(N2CCN(c3nc4ccccc4c4nc(-c5ccccc5)nn34)CC2)c1 7.97%
COc1cccc(-c2nc(S(=O)(=O)c3ccc(C)cc3)c(NCc3ccccc3)o2)c1 6.85%
COc1ccc(N2C(=O)CS(=O)(=O)C23C(=O)N(Cc2ccccc2)c2ccccc23)cc1 (stereo not given) 11.6%
O=C(CSc1nc2ccccc2c2nc(-c3ccccc3)nn12)Nc1ccc(F)cc1 -16.3%
COc1ccc(-c2cc(C(C)=O)c(C)n2CCC(=O)Nc2cccc(C)c2C)cc1 -7.07%
C=C1C(=O)OC(CCCCCCCC)C1C(=O)O (stereo not given) -18.7%
COc1cc(NC(=O)CN(C)S(=O)(=O)c2ccc3c(c2)CCCC(=O)N3)cc(OC)c1OC -1.16%
CCc1ccc2c(c1)c(=O)c(S(=O)(=O)c1ccccc1)cn2CC(=O)Nc1cc(C)ccc1C 49.7%
Cc1cccc(NC(=O)CSc2nc(C)cc(C)c2C(=O)Nc2ccc(Cl)cc2)c1 -21.3%
Cc1ccc(C)c(NC(=O)Cn2cc(S(=O)(=O)N3CCCC3)c(S(=O)(=O)N3CCCC3)c2)c1 4.03%
COc1ccc(Cl)cc1NC(=O)c1cc(=O)c2cc(C)cc(C)c2o1 -22.9%
CCc1nn2c(=O)cc(COC(=O)c3cccc(NC(=O)COc4ccccc4F)c3)nc2s1 3.22%
CCc1nnc(SC(CC)C(=O)NCCOC)c2cc3occc3n12 (stereo not given) 6.94%
CN1CCN(C(=O)c2cnn(-c3ccccc3)c2C2CCN(C(=O)OC(C)(C)C)CC2)CC1 -4.26%
CCOc1ccccc1N(C)C(=O)c1cc(S(=O)(=O)NCc2ccc(C)cc2)ccc1F -38.8%
CCN(CC)CCCC(C)Nc1nc(C)cc(Nc2ccc3nc(C)cc(N)c3c2)n1 (stereo not given) 10.7%
COC(=O)c1cc2sc(C)cc2n1Cc1nc(-c2cccc(Br)c2)oc1C 0.0914%
CCOC(=O)C1CCN(c2csc3ccc(C)cc3c2=O)CC1 -0.547%
Cc1cccc(-c2nc3c4ccccc4n(CC(=O)Nc4cccc(F)c4)c(=O)n3n2)c1 -10.3%
Cc1cccc(NC(=O)c2c(C)oc3ncn(CC(C)C)c(=O)c23)n1 0.191%
Cc1sc2ncn(CC(=O)N(C)c3ccc(Br)cc3)c(=O)c2c1S(=O)(=O)N1CCC(C)CC1 66.1%
CC(C)(C)c1ccc(OCC(=O)N2CCC(c3nc4ccccc4s3)CC2)cc1 -3.66%
CCOc1ccc(-c2nnc(Nc3ccc(S(N)(=O)=O)cc3)c3ccccc23)cc1 7.11%
O=C(NCCc1ccccc1)c1cc(-c2ccc(Cl)cc2)on1 -4.76%
COc1ccc(NC(=O)c2noc3c2CCCC3)cc1Cl 4.28%
COc1ccccc1NC(=O)c1c(NCc2ccc(OC)c(OC)c2OC)sc2c1CCCC2 12.5%
COc1ccc(NC(=O)c2cc3c(=O)n(Cc4ccco4)ccc3nc2C)cc1 9.79%
Cc1ccc(NC(=O)Nc2ccc3c(c2)N(C)C(=O)c2ccccc2S3)c(C)c1 -8.79%
CN1C(C(=O)c2ccccc2)=C(OC(=O)c2ccc(Br)cc2)c2ccccc2S1(=O)=O -11.1%
Cc1oc2c(c(C)cc3oc(=O)c(CC(=O)NCCc4ccccc4)c(C)c32)c1C 5.39%
O=C(NCCc1csc2nc(-c3ccccc3F)nn12)c1ccco1 -14.6%
Cc1ccc(-c2c(CN3CCN(c4cccc(C(F)(F)F)c4)CC3)csc2C)cc1 4.91%
COc1ccc(N2CCN(S(=O)(=O)CCNC(=O)C(c3ccccc3)c3ccccc3)CC2)cc1 -15.6%
CCOC(=O)c1ccc(Nc2nc3ccccc3nc2NS(=O)(=O)c2ccc(Cl)cc2)cc1 3.7%
CCN1CCN(CCCNC(=O)c2cnn(-c3ccccc3)c2C2CCN(C(=O)OC(C)(C)C)CC2)CC1 -10.5%
O=C1CSC2(C(=O)N(Cc3ccccc3F)c3ccccc32)N1c1ccc(F)cc1 (stereo not given) 19.4%
COc1cc(NC(=O)c2ccc(C)cc2)ccc1NC(=O)c1cc2ccccc2o1 1.25%
COc1ccc(CCC(=O)N2CCc3c([nH]c4ccccc34)C2c2ccc(F)cc2)cc1 (stereo not given) -5.87%
CCSc1nnc2n(-c3cccc(C)c3)c(=O)c3c4c(sc3n12)CCCC4 9.46%
COc1ccc(-c2cc(C(=O)Nc3cccnc3Cl)no2)cc1OC -0.372%
Cc1ccc2onc(CNC(=O)N3CCN(c4cccc(C)c4C)CC3)c2c1 -1.84%
O=C(NCCc1ccccc1)c1ccc(CS(=O)(=O)c2ccc(Br)cc2)o1 -2.09%
Cc1cc2nn(-c3ccccc3)nc2cc1NC(=O)c1cccc2c(Cl)cccc12 -3.65%
COc1ccc(-n2ccnc2SCC(=O)Nc2ccc(F)cc2F)cc1 -60%
CCN(CCCNC(=O)Cn1ncc2c([nH]c3ccc(C)cc32)c1=O)c1cccc(C)c1 1.75%
CCC(=O)N1c2ccccc2CC1C(=O)NCc1ccc(OC(C)C)cc1 (stereo not given) -3.12%
Cc1nc2cccnc2n1-c1cccc(C(=O)N2CCN(c3ccc(Cl)cc3)CC2)c1 -9.68%
CCOc1ccc(-c2nc(SCC(=O)Nc3ccc4c(c3)OCO4)c(-c3ccc(F)cc3)[nH]2)cc1 -20.6%
CCOC(=O)Nc1ccc(NCc2ccc(F)cc2)nc1N -21.5%
Cc1csc2nc(-c3cccc(NC(=O)C(C)C)c3)cn12 -17.7%
Cc1cccc(CCNC(=O)c2sc3nc4n(c(=O)c3c2C)CCCC4)c1 3.99%
COc1ccc(C2CC(=O)Nc3c2c(C)nn3-c2nncc(-c3ccc(C)cc3)n2)c(OC)c1OC (stereo not given) -0.0113%
CCOC(=O)c1cccc(NC(=O)[C@@H](c2ccccc2)N2Cc3ccccc3C2=O)c1 -7.08%
O=C1c2oc3ccccc3c(=O)c2C(c2ccccc2)N1Cc1ccc2c(c1)OCO2 (stereo not given) 1.9%
CC1COc2c(N3CCN(C)CC3)c(F)cc3c(=O)c(C(=O)O)cn1c23 (stereo not given) -4.18%
Cc1cc(C)c(NC(=O)Cc2csc(C)n2)c(Cl)c1 11.9%
CCc1ccc(NC(=O)c2sc(-n3nc(C)c(Cc4ccc(OC)cc4)c3C)nc2C)cc1 1.65%
COc1ccc(N(C)C(=O)CCn2cnc3onc(-c4ccc(F)cc4)c3c2=O)c(OC)c1 20.9%
COc1cccc(NC(=O)CN2C(=O)c3cccnc3Oc3ccc(Cl)cc32)c1 -3.33%
CCOc1ccccc1NC(=O)c1nn(-c2ccc(C)cc2)c(=O)n(C)c1=O -7.29%
CCOc1ccccc1C1C(C(=O)N2CCCCC2)=C(C)Nc2nc3ccccc3n21 (stereo not given) 8%
COC(=O)c1c(-c2cccs2)csc1NC(=O)COc1ccc(C(C)(C)C)cc1 2.65%
CCCCN(CCCC)C(=O)c1cc2c(=O)n3cccc(C)c3nc2s1 -7.78%
CC(C)(C)OC(=O)N1CCC(c2c(C(=O)N3CCC(c4ccccc4)C3)cnn2-c2cccc(Cl)c2)CC1 (stereo not given) -4.39%
CC(NC(=O)c1ccc2c(c1)CCN2S(=O)(=O)c1ccc(Cl)cc1)c1ccccc1 (stereo not given) -14.1%
CCOc1ccc(NC(=O)CSc2nc3c(oc4ccccc43)c(=O)n2-c2ccccc2C)cc1 4.52%
CCCCc1ccc(NC(=O)c2cc3c(=O)n4ccccc4nc3s2)cc1 -3.11%
COc1ccc(-c2cc3ccc(O)c(CN4CCOCC4)c3oc2=O)cc1OC -12.6%

outcome, inactive:
COc1cccc(CNC(=O)CCCn2c(=O)c3cccn3c3ccc(F)cc32)c1OC
O=C(Cn1c2ncccc2c(=O)n1-c1ccccc1)Nc1cccc(C(F)(F)F)c1
Cc1ccccc1-c1nc(CS(=O)(=O)CC(=O)Nc2c(C)cccc2C)c(C)o1
Cc1ccc(CCNC(=O)Cn2ncc3c(=O)oc4ccccc4c32)cc1
CCc1cccc(NC(=O)Cn2c(=O)n(Cc3ccccc3)c(=O)c3c(C)c(C(=O)N(C)C)sc32)c1
CC(C)(C)OC(=O)N1CCC(c2c(C(=O)N3CCN(c4ccccc4F)CC3)cnn2C(C)(C)C)CC1
CC(=O)N1CCc2cc(S(=O)(=O)CCC(=O)N3CCN(c4cccc(C)c4C)CC3)ccc21
Cc1nc2c(C(=O)NCc3ccccc3)c[nH]n2c(=O)c1Cc1ccccc1Cl
Cc1cc(C)c(NC(=O)CSc2nc(=O)[nH]c3c2CCCC3)c(C)c1
CCCOC1(C(F)(F)F)NC(=O)N(c2ccc(Cl)cc2)C1=O (stereo not given)
COc1cccc(NC(=O)Nc2cccc(-c3cn4cccnc4n3)c2)c1
CCOC(=O)c1c(C)[nH]c(C)c1S(=O)(=O)NCC(=O)Nc1cc(C)ccc1OC
O=C(NC(=O)c1ccc(F)cc1)Nc1ccc(-c2cc(C(F)(F)F)nn2-c2ccccc2)cc1
COc1cccc(C2C=C(c3ccc(C)c(C)c3)Nc3nnnn32)c1OC (stereo not given)
CCc1ccccc1NC(=O)c1ccc2c(c1)N(Cc1cccc(Cl)c1)C(=O)c1ccccc1S2(=O)=O
Cc1c(-c2nsc(NC(=O)c3ccccc3)n2)nnn1-c1ccc(C(F)(F)F)c(Cl)c1
CCN1C(=O)c2ccccc2Sc2ccc(C(=O)NCCCN(CC(C)C)CC(C)C)cc21
COc1ccccc1CNc1ccc(-c2nc(-c3cccnc3)no2)cc1[N+](=O)[O-]
Cc1ccc(C(=O)Nc2ccc(-c3cn4cccnc4n3)cc2)cc1C
Cc1cccc(OCC(=O)N(Cc2cccs2)c2ccc(Cl)cc2)c1C
COc1ccc(C2CC(=O)N(CC(=O)Nc3cc(C)ccc3C)c3ccccc3S2)cc1 (stereo not given)
COc1ccccc1-c1nnc(SCC(=O)c2ccc(Cl)cc2)n1-c1ccccc1
Cc1ccc(-c2nc3sc(CCNC(=O)c4ccc(Br)o4)c(C)n3n2)cc1
COc1ccccc1CNC(=O)C(NS(=O)(=O)c1cccs1)C(C)C (stereo not given)
